This passage reports outcome and AC50 results from PubChem BioAssay (EPA / NIEHS).

The structures appear in SMILES notation. For part of these data: Most of the hits are listed elsewhere, so they are rarer here than in the full data. Records with an inconclusive call do not appear. The entries are a selection whose mix differs from that of the whole data set. The source made the active and inactive calls. Rule for the calls, unless noted: active = hit-call score of the fitted dose curve at least 0.9, where 1 is the maximum; inactive = score below 0.9.

Read-out in assay [1]: Vascular endothelial growth factor receptor 2 (Homo sapiens) (UniProt P35968)
The assay can be described thus: BSK_4H_VEGFRII: BioMAP Diversity Plus: 4H Assay for Vascular endothelial growth factor receptor 2 (VEGFR2) Biomarker Activity (AID 2283031). Particulars: actives raise or lower the signal; primary human endothelial cells (HUVEC). An outline of the steps:
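Primary human umbilical vein endothelial cells in the BioMAP 4H system were dosed with test chemical, and 24 h later VEGFRII was measured by ELISA. Activity was fitted bidirectionally against DMSO as negative control and baseline.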

The nature of assay [2]: Tanguay_ZF_120hpf_JAW_legacy: (Legacy) Oregon State University Tanguay Lab 120 Hour Post-fertilization zebrafish Assay for Jaw Malformation (AID 2283638; active = hit-call score of the fitted dose curve at least 0.9, where 1 is the maximum). In a few lines: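 Tropical 5D wild-type embryos, dechorionated with pronase at 4 hpf, were placed singly per well at 6 hpf and statically exposed at 28C until 120 hpf (0.64% DMSO final). Jaw malformation scored as present/absent by brightfield microscopy at 120 hpf, analyzed relative to DMSO.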

Assay [3] is described as follows: IUF_NPC1_viability_72hr: Viability Assessment at 72 hours in the Leibniz Research Institute for Environmental Medicine (IUF) Neural Progenitor Cell Proliferation Assay (NPC1) (AID 2284209). In a few lines:
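Alamar blue fluorescence (RFU) after 72 h exposure, normalized to DMSO baseline. hNPC spheres from GW 16-19 fetal cortex, single sphere per well in growth-factor medium; no compound renewal.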

Read-out in assay [4]: Macrophage colony-stimulating factor (MCSF), CSF1 (gene 1435)
The assay can be described thus: BSK_CASM3C_MCSF: BioMAP Diversity Plus: CASM3C Assay for Macrophage colony-stimulating factor (MCSF) Biomarker Activity (AID 2283044).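 Note: M-CSF protein amount quantified by ELISA after 24 h exposure.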 Particulars: actives raise or lower the signal; primary human coronary artery smooth muscle cells.

Read-out in assay [5]: Low-density lipoprotein receptor (LDLR), LDLR (gene 3949)
The assay can be described thus: BSK_CASM3C_LDLR: BioMAP Diversity Plus: CASM3C Assay for Low-density lipoprotein receptor (LDLR) Biomarker Activity (AID 2283045).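 Note: LDLR protein level on the cell surface quantified by ELISA.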 Particulars: actives raise or lower the signal; primary human coronary artery smooth muscle cells.

Read-out in assay [6]: E-selectin (Homo sapiens) (UniProt P16581)
Description: BSK_LPS_Eselectin: BioMAP Diversity Plus: LPS Assay for Eselectin Biomarker Activity (AID 2283077). As to conditions: actives raise or lower the signal; primary human HUVEC with PBMC. An outline of the steps: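 Human umbilical vein endothelial cells co-cultured with peripheral blood mononuclear cells under LPS stimulation; E-selectin measured by ELISA 24 h after chemical dosing. Activity fitted bidirectionally against DMSO as negative control and baseline.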

Read-out in assay [7]: CD40, CD40 (gene 958)
Description: BSK_SAg_CD40: BioMAP Diversity Plus: SAg Assay for CD40 Biomarker Activity (AID 2283088). Particulars: actives raise or lower the signal; primary human HUVEC with PBMC. In a few lines: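 Human umbilical vein endothelial cells co-cultured with PBMC; CD40 levels measured by ELISA with fluorescence read-out 24 h after chemical dosing. Gain or loss of signal fitted bidirectionally against DMSO baseline.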

Read-out in assay [8]: Monokine induced gamma interferon (MIG), CXCL9 (gene 4283)
The assay can be described thus: BSK_SAg_MIG: BioMAP Diversity Plus: SAg Assay for Monokine induced gamma interferon (MIG) Biomarker Activity (AID 2283092). Particulars: actives raise or lower the signal; primary human HUVEC with PBMC. In a few lines: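 ELISA readout of MIG/CXCL9; primary human umbilical vein endothelial cells co-cultured with peripheral blood mononuclear cells; 24 h post-dose; gain/loss fit vs DMSO baseline.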

Assay [9] is described as follows: BSK_SAg_SRB: Viability Assessment in the BioMAP Diversity Plus: SAg Assay (AID 2283096).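 Note: cells read one day after compound addition; hits may be either gain or loss of signal compared with DMSO.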 As to conditions: primary human HUVEC with PBMC. In a few lines: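 Compounds were added to a human vascular co-culture of umbilical vein endothelium and PBMC. After 24 h, parallel cultures were fixed with 10% TCA, stained with 0.1% sulforhodamine B and read at 560 nm. Gain or loss of signal was fitted relative to DMSO.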

For assay [10], the target named is chimpanzee Androgen Receptor (AR), AR (gene 747460) (UniProt O97775). The assay can be described thus: NVS_NR_cAR: NovaScreen (NVS) Nuclear Receptor Binding Assay for chimpanzee Androgen Receptor (AR) (AID 2283346; active = hit-call score of the fitted dose curve at least 0.9, where 1 is the maximum;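 note: a loss of bound radioligand signal versus DMSO counts as binding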). In a few lines: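 Radioligand binding to chimpanzee AR expressed in Sf9/Sf21 cells, cell-free, measured 72 h after dosing by lysate-based scintillation counting. Loss of signal vs DMSO; initial duplicate screen at 25 uM, actives retested in concentration series.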

In assay [11] the target is PGR (gene 5241) (UniProt P06401). The assay can be described thus: TOX21_PR_BLA_Followup_Antagonist_ratio: Tox21 HEK293 Progesterone Receptor (PR) Antagonism Beta-lactamase Follow-Up Assay, Ratio (AID 2283934; active = hit-call score of the fitted dose curve at least 0.9, where 1 is the maximum). In a few lines:
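Read-out: blue/green beta-lactamase FRET ratio (cleaved ch2 over uncleaved ch1), fitted relative to DMSO baseline. Cells: PR-UAS-bla HEK293T, GAL4-UAS reporter, stimulated with 1 nM R5020 final; 16 hr compound exposure, 37C.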

Read-out in assay [12]: Vascular cell adhesion molecule 1 (VCAM1), VCAM1 (gene 7412)
Description: BSK_MyoF_VCAM1: BioMAP Diversity Plus: MyoF Assay for Vascular cell adhesion molecule 1 (VCAM1) Biomarker Activity (AID 2284231). Particulars: primary human lung fibroblasts. In a few lines: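 Primary human lung fibroblasts were dosed with test chemical for 24 h, then cell-surface VCAM-1 was measured by ELISA. Activity was fitted in the positive direction against DMSO as negative control and baseline.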

Chain of UniProt P06401 (P06401 whole entry, looked up, the tested form may be a part): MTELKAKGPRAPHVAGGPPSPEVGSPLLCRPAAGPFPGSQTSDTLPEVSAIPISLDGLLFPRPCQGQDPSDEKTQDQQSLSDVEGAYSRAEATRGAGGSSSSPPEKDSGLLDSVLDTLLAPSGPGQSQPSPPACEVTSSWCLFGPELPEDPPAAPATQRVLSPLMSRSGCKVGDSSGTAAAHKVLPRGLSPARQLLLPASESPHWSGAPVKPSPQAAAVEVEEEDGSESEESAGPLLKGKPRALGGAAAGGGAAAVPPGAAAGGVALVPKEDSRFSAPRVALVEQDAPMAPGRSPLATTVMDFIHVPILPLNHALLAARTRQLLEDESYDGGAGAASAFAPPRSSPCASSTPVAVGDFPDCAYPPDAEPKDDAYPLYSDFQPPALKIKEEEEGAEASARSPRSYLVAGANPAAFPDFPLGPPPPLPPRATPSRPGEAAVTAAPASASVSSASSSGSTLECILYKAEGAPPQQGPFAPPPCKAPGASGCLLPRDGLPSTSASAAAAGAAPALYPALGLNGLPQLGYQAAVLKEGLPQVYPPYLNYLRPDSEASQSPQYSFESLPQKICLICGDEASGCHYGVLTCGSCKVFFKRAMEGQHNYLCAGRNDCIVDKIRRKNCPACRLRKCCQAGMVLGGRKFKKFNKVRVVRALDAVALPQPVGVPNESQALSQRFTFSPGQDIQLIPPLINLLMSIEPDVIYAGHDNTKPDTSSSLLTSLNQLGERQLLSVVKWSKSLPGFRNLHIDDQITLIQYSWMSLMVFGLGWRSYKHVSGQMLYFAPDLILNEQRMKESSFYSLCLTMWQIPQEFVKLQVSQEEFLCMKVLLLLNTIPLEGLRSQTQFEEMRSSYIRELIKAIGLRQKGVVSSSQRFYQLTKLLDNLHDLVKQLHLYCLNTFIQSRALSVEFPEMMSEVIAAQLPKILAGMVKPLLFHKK
Chain of UniProt P16581 (P16581 whole entry, looked up): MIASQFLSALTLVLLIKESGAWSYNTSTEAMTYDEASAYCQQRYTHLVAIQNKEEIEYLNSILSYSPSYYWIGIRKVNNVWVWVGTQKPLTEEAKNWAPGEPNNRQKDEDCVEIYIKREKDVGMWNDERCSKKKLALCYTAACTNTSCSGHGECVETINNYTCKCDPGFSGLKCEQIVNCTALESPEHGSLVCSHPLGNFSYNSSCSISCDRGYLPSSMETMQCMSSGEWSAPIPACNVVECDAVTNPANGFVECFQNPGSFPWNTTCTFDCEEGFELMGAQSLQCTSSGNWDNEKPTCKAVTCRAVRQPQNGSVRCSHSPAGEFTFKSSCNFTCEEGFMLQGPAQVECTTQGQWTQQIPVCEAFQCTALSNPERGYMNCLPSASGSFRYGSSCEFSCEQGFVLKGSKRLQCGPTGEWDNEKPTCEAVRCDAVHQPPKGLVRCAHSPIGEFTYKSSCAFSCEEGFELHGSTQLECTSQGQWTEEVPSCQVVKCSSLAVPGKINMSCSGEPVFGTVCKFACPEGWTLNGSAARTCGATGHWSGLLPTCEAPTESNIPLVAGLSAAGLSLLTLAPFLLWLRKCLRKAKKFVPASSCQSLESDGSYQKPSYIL
Chain of UniProt O97775 (O97775 whole entry, looked up): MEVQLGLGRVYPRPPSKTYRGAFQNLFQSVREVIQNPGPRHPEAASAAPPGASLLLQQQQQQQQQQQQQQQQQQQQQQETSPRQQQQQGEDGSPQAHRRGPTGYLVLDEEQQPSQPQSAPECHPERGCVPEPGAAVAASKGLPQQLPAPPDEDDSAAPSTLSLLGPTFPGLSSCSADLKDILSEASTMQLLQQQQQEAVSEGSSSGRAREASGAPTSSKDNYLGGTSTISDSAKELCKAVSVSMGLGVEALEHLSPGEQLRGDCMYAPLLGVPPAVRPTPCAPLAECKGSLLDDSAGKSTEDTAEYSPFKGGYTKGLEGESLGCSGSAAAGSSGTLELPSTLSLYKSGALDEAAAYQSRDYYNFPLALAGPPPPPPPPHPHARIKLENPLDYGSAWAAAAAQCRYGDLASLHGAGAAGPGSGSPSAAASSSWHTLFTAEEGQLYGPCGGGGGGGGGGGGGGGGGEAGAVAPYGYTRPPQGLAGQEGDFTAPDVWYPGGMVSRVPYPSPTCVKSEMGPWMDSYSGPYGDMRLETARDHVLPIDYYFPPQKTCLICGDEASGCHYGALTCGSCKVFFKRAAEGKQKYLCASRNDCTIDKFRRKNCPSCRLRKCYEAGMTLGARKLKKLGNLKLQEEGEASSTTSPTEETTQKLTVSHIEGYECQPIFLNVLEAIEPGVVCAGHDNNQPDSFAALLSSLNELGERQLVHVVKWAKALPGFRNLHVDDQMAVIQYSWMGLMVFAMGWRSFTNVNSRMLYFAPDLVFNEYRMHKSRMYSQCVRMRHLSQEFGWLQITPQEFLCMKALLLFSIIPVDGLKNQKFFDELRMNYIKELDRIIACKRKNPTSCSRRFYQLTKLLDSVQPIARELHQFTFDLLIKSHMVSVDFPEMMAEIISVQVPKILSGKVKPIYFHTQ

Take `CCCCSP(=O)(SCCCC)SCCCC`: the result in assay [1], in [2] and in [3] was inactive.
Turning to `Cc1ccc2c(c1N)C(=O)c1ccccc1C2=O`, the result in assay [4] was inactive.
Usually AC50 stands for the concentration at which the activity in the assay is half-maximal. Regarding `CC(C)(c1cc(Cl)c(O)c(Cl)c1)c1cc(Cl)c(O)c(Cl)c1`, the result in assay [5] and in assay [10] was inactive. Further, the AC50 in [6] is active: 30.4 µM; in assay [7], active: 24.4 µM; in assay [8], active: 35.6 µM; in assay [9] it was active: 30.1 µM; in [11] it was active: 11.2 µM; in assay [12] it was active: 10.5 µM.
